Results published in PubChem BioAssay AID686979 (National Center for Advancing Translational Sciences (NCATS), 2013).
Values joined by “and” are separate entries in the source; they are usually repeats but may differ in a detail not shown here. Identical values can stand only once. The whole screen tested about 420,000 compounds, of which about 50,000 (12%) were called active. The inconclusive results got no clear call from the source; some entries with a clear call stand among them for comparison. Calls follow the shape of the dose curve; as a rule, active = well fitted inhibition curve with a large enough effect; inconclusive = small, poorly fitted or top-dose-only effect; inactive = flat fitted curve, though single readings scatter. Where the call is inconclusive, the potency comes from a doubtful curve fit.
% is scaled to controls: 0 for no effect and ±100 for the full control effect; potency is read from the fitted curve at half-maximal effect; tags tell the direction and shape of the fitted curve.

Assay: qHTS for Inhibitors of human tyrosyl-DNA phosphodiesterase 1 (TDP1): qHTS in cells in presence of CPT; also: nearly all actives have a fitted effect of over 55% in size
Settings: chicken DT40 Tdp1-/-;hTDP1 cells + 20 nM CPT, ATP luminescence, 48 h; activity change, negative = growth inhibition: at 46.2 µM (top of the series)
Procedure, shortened: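 Cell growth measured by CellTiter-Glo luminescence after a minimum 48 h, 37 C compound exposure with 20 nM CPT in Tdp1-knockout DT40 cells stably expressing hTDP1, seeded 400/well; qHTS titration format.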
With `CCOc1ccc(C(=O)Nc2ccc3nc(N(CC)CC)cc(C)c3c2)cc1` the Potency was active: 18.4 µM. For `Cc1cc(N2CCC(C(=O)Nc3ccc(F)cc3F)CC2)n2nc(C)c(-c3ccc(Cl)cc3)c2n1`, the Potency was inconclusive: 4.11 µM [inhibitor, partial curve]. In the case of `CC(C(=O)O)c1ccc(N2Cc3ccccc3C2=O)cc1` (stereo not drawn), the Potency is reported as inconclusive: 18.4 µM [inhibitor, single point] and inconclusive: 33.5 µM [inhibitor, partial curve, poor fit]. In the case of `CO[C@@]12[C@H](COC(N)=O)C3=C(C(=O)C(C)=C(N)C3=O)N1C[C@@H]1N[C@@H]12`, the Potency is reported as active: 9.2 nM and active: 580 nM. For `CCOc1cccc2sc(NC(=O)c3ccc(S(=O)(=O)N4CCCCC4C)cc3)nc12` (stereo not drawn), the Potency was inconclusive: 29.1 µM [inhibitor, single point]. For `O=C(NCCN1CCOCC1)c1cnn2c(-c3ccccc3)cc(-c3ccccc3)nc12`, the Potency was inconclusive: 23.1 µM [inhibitor, single point]. For `COc1ccc(NS(=O)(=O)c2cc(NC(=O)c3cnc(C)cn3)ccc2N2CCCCC2)cc1`, the Potency was inconclusive: 32.6 µM [inhibitor, single point]. For `Cc1c(C(=O)N2CCCC(C)C2)sc2ncnc(NCCN3CCCCC3)c12` (stereo not drawn), the activity change, negative = growth inhibition was inactive: -2.48% [at 9.04 µM]. For `CC1(c2nc3ccccc3[nH]2)CCC(=O)N1Cc1cccs1` (stereo not drawn), the Potency was “inactive”. In the case of `COc1ccc(S(=O)(=O)/N=C2\C=C(NS(=O)(=O)c3ccccc3)C(=O)c3ccccc32)cc1`, the Potency is reported as inconclusive: 18.4 µM [inhibitor, single point]. With `O=[N+]([O-])c1ccccc1/C=N/n1c(COc2ccccc2)n[nH]c1=S` the Potency was inconclusive: 29.1 µM [inhibitor, single point]. For `COc1cc(CN2CCN(C(c3ccccc3)c3ccccc3)CC2)cc(OC)c1OC`, the Potency was active: 8.2 µM. With `CC1CCN(c2c(NCC3CCC(C(=O)N4CCc5ccccc5C4)CC3)c(=O)c2=O)CC1` (stereo not drawn) the Potency was inconclusive: 29.1 µM [inhibitor, single point]. With `COc1ccccc1NC(=O)Cn1c2ccc(F)cc2c2nc3n(c(=O)c21)CCS3` the Potency was inconclusive: 29.1 µM [inhibitor, single point]. With `Cc1ccc(Nc2c3c(nc4ccccc24)CCC3)cc1` the Potency was active: 11.6 µM. For `Clc1ccccc1Cn1c(-c2cccs2)nc2ccccc21`, the Potency was inconclusive: 29.1 µM [inhibitor, single point]. For `C/C(Cn1cnc([N+](=O)[O-])n1)=N/NC(=O)COc1c(Cl)cc(Cl)cc1Cl`, the Potency was “inactive”. In the case of `CCOC(=O)c1c(C)[nH]c(C)c1S(=O)(=O)N1CCN(c2cc(Cl)ccc2C)CC1`, the Potency is reported as inconclusive: 29.1 µM [inhibitor, single point]. With `C#C[C@@]1(O)CCC2C3CCc4cc(O)ccc4C3CC[C@@]21C` (stereo partly drawn) the Potency was inconclusive: 29.1 µM [inhibitor, single point]. For `O=[N+]([O-])c1ccc(C[n+]2ccc(Cc3ccccc3)cc2)cc1`, the Potency was active: 18.4 µM. For `COCC(C)n1c(C)cc(C(=O)CSc2nnc(N)s2)c1C` (stereo not drawn), the activity change, negative = growth inhibition was inconclusive: -37.5% [inhibitor]. For `COc1cc(C)c(CNc2cc(C)cc(C)c2)cc1C`, the Potency was inconclusive: 25.9 µM [inhibitor, single point]. In the case of `COc1ccc(OC)c(-c2cc(C(=O)NCc3cccs3)no2)c1`, the Potency is reported as active: 20.6 µM. In the case of `O=C1C=C(c2ccc(Br)c3ccccc23)C[C@@H](c2ccc3c(c2)OCO3)C1`, the Potency is reported as inconclusive: 23.1 µM [inhibitor, single point]. For `Cc1ccc(CNC(=O)C2CC(c3cccc(F)c3)=NO2)cc1` (stereo not drawn), the Potency was “inactive”. With `O=C1CCC/C=C/C[C@H](CC(=O)N(CCO)Cc2ccccc2)C(=O)N[C@@H](Cc2ccccc2)CO1` the Potency was inconclusive: 29.1 µM [inhibitor, single point]. With `CCc1cccc(NC(=O)c2ccc3c(c2)N(Cc2cccc(Cl)c2)C(=O)c2ccccc2S3=O)c1` (stereo not drawn) the Potency was “inactive”. With `CCSC(=O)N1c2ccc(OC)cc2C=CC1C#N` (stereo not drawn) the Potency was active: 0.0082 µM. With `Cc1ccc(NC(=O)C2=NNC(=O)CC2)cc1S(=O)(=O)Nc1ccc(SC(F)F)cc1` the Potency was inconclusive: 29.1 µM [inhibitor, single point]. With `C[C@H](CO)N1C[C@H](C)[C@H](CN(C)S(C)(=O)=O)OCc2cnnn2CCCC1=O` the Potency was “inactive”. With `Cc1[nH]c(=O)c(C(=O)/C=C/c2ccccc2F)c2c1CCCC2` the Potency was active: 4.61 µM. In the case of `COc1ccc2[nH]c3c(c2c1)CCN1C(=O)C(CC(=O)NCc2ccco2)C[C@H](C(=O)N2CCOCC2)[C@@]31CCC1CCCC1` (stereo partly drawn), the Potency is reported as inconclusive: 29.1 µM [inhibitor, single point]. For `Cc1ccc(-c2cc(C(=O)NCc3ccc4c(c3)OCO4)[nH]n2)c(O)c1C`, the Potency was inconclusive: 18.4 µM [inhibitor, single point]. In the case of `CC(C)NC(=O)C1Cc2c(-c3ccc4c(c3)OCO4)ccnc2O1` (stereo not drawn), the Potency is reported as inconclusive: 25.9 µM [inhibitor, partial curve]. For `COc1cccc(NC(=S)NCCC(c2ccccc2)c2ccccc2)c1`, the Potency was active: 20.6 µM. With `COc1ccc(Br)cc1CN(C)CC(=O)NCc1ccc(F)cc1` the Potency was inconclusive: 29.1 µM [inhibitor, single point]. With `CC1(C)CC(NNCCC#N)=CC(=[N+]2CCCC2)C1` the Potency was inconclusive: 29.1 µM [inhibitor, single point]. With `Nc1nc(Nc2cccc(F)c2)nc2ccccc12` the Potency was active: 18.4 µM. In the case of `O=C(CCC(=O)N(CC(=O)NC1CCCCC1)CC1CCCO1)Nc1nccs1` (stereo not drawn), the Potency is reported as “inactive”. With `Cc1cc(S(=O)(=O)NC2CCN(Cc3ccccc3)CC2)c(C)cc1Cl` the Potency was inconclusive: 29.1 µM [inhibitor, single point]. In the case of `CC(=NNS(=O)(=O)c1ccc([N+](=O)[O-])cc1)c1ccc(C)cc1`, the Potency is reported as “inactive”. In the case of `Cc1ccccc1N=Cc1cccc(O)c1O`, the Potency is reported as inconclusive: 29.1 µM [inhibitor, single point]. For `COc1nc(C#N)nc(N2CCCC2)n1`, the Potency was inconclusive: 25.1 µM [inhibitor, single point].
